# Source: the supplement of paper PMC3334620
# Whole data set: some 33,000 sequences, median “E-score (-0.5 to 0.5)” near -0.056, cut for the highest 2% near 0.38. The list shows a part of the results.
# Target: Stb4 (UniProt P50104)
# Test: PBM E-score (8-mer binding enrichment) (E-score (-0.5 to 0.5)); higher = stronger / more preferred TF binding; most listed sequences are background and not binding sites
# Settings: protein concentration: 200 nM; construct: GST-DNA-binding domain
# How it was run: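 Universal all-10-mer Agilent arrays, double-stranded by primer extension on fresh or once-stripped slides, were probed with about 100-200 nM GST-tagged yeast transcription factors made by PURExpress. Fluorescent anti-GST detected bound protein, and masliner normalised the scans. E-scores from the Universal PBM Analysis Suite were given to each ungapped eight-base word pooled with its reverse complement.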
row,Sequence,PBM E-score
1,TAGTGGGA,-0.0408
2,ACCCGGGG,0.254
3,AGCGAAAG,-0.193
4,AGACAATA,-0.123
5,ACCGCTAA,0.0108
6,CATTATCA,-0.211
7,GCGAGAGC,0.0542
8,AATTTAAT,0.0138
9,AATTTGCT,-0.0945
10,CAAATGCA,-0.226
11,GCAAATGA,-0.234
12,CGAAAGAG,-0.0204
13,TAGTATGA,-0.147
14,ACATAGGT,-0.359
15,GCATCATA,-0.141
16,GACCAACA,-0.0334
17,ATAGAAGA,-0.11
18,TCATAGAA,-0.0472
19,GACGATAC,-0.0335
20,AGAGCCCC,-0.0505
21,CCACATAC,-0.1
22,ACACTTGA,-0.222

row,Sequence,PBM E-score
1,GAAAGTAC,0.209
2,AGAGCGAG,-0.121
3,CCTACGCC,-0.243
4,GTAGACGA,-0.216
5,ACACACCA,-0.169
6,ATCACGCC,-0.0303
7,GAGAACAC,-0.0355
8,CGCCATAA,-0.0429
9,GAACCACA,-0.0151
10,TCGAAGCA,-0.0986
11,ATAAGTCC,-0.0143
12,ACCCAGAT,-0.0868
13,CGGACGTC,0.14
14,GACGTGAC,-0.254
15,GGAGCGAA,-0.00881
16,ATGGCATC,-0.0882
17,AGATTTCA,-0.114
18,ATCTATTC,-0.0366
19,GTATTTGA,-0.144
20,TATTAAGA,-0.127
21,CGTCGCAC,0.0436
22,ACGGGATG,0.146

row,Sequence,PBM E-score
1,CCTGTTCC,0.0703
2,GGGCAGTA,0.00283
3,GGGTCACA,-0.0305
4,CGGTACGC,0.221
5,AACTGCTA,-0.222
6,GAAAGCGA,0.0337
7,GATCTAGA,-0.0828
8,ACATCCAT,-0.113
9,AACTAAGA,0.0142
10,AGCCTCTG,-0.291
11,CCCAAAGA,-0.0964
12,CAGGTGTC,-0.0286
13,TACGGACA,-0.0114
14,AGAATGTC,-0.248
15,ATCTTGTA,-0.0999
16,ACACAATA,-0.0748
17,TACACGCA,-0.314
18,TAAGCCAA,-0.239
19,GACAGTGA,-0.118
20,GAAGATGC,0.0662
21,ACGCGGTG,-0.136
22,AATACAAA,0.119

row,Sequence,PBM E-score
1,AAGGGCTG,-0.214
2,CCGATATC,0.297
3,CGCCAAAC,-0.0186
4,GAACCTAA,0.105
5,GGAGGGAA,-0.0175
6,CAGACAGG,-0.201
7,CCTATACC,0.0471
8,AGATTGGA,-0.0892
9,GGCGATCA,-0.0874
10,CATTGCAA,-0.194
11,TAAAGCAA,-0.174
12,CTCGCCCA,-0.0959
13,AGGACGAA,0.0412
14,AATGCCGT,0.277
15,CGCAGTAG,-0.0294
16,CATGAGCC,-0.197
17,AATCACTA,-0.0272
18,ATTGGGGA,-0.245
19,TGCAGCCA,-0.125
20,CTAGTGAC,-0.247
